Results as given in PubChem BioAssay AID1030 (National Center for Advancing Translational Sciences (NCATS), 2008).
Several values for one entry are separate records, joined by “and”; a condition that tells them apart may be missing. Identical values can stand only once. Hit rate of the full screen: of about 220,000 compounds, about 16,000 (7.3%) were called active. Inconclusive results, whose numbers are uncertain, are shown with a selection of clear calls. The call rests on the fitted dose curve; in most records, active means well fitted inhibition curve with a large enough effect (not every such curve was filed as active); inconclusive means small, poorly fitted or top-dose-only effect, or another doubt; inactive means no such curve, though single readings can be large or run the other way. A potency beside an inconclusive call is a rough fit, not a confirmed value.

Biological target: Aldehyde dehydrogenase 1A1 (Homo sapiens) (UniProt P00352)
UniProt P00352, sequence (P00352 whole entry, looked up): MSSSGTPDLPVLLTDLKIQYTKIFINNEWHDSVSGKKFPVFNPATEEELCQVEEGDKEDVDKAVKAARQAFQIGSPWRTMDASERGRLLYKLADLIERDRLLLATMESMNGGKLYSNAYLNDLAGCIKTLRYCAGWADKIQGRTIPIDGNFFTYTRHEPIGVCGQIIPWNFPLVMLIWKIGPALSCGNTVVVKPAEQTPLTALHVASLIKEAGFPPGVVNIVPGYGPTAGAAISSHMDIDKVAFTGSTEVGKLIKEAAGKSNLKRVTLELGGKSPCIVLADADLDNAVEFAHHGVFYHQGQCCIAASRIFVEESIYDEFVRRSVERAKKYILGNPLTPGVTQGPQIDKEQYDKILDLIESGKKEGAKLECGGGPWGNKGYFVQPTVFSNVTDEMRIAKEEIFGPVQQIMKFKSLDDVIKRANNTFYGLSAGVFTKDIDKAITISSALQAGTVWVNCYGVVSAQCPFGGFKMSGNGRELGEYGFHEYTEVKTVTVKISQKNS
Test: qHTS Assay for Inhibitors of Aldehyde Dehydrogenase 1 (ALDH1A1)
Settings: Purified ALDH1A1, NADH fluorescence, propionaldehyde substrate; series mostly up to 75.3 µM
Potency means the concentration at half of the fitted maximal effect; tags describe the fitted curve by direction and shape.

| SMILES | Potency |
| --- | --- |
| CCn1cc(CNC(=O)c2c(-c3c(Cl)cccc3Cl)noc2C)c(C)n1 | inactive |
| COc1ncc2nc(-c3cc(F)cc(F)c3)c(=O)n(C3CC3)c2n1 | inconclusive: 25.1 µM [inhibitor, partial curve] |
| O=c1onc2cnc3ccccc3n12 | inconclusive: 14.1 µM [inhibitor, partial curve] and inconclusive: 25.1 µM [inhibitor, partial curve] |
| COc1ccc2nc(N3CCOCC3)cc(C)c2c1 | inconclusive: 28.2 µM [inhibitor, partial curve] |
| COc1ccc2c(c1)CCc1c(C(=O)N3CCCc4ccccc43)noc1-2 | active: 4.47 µM |
| C=CCOC(=O)C1=C(C)NC(SCC(=O)OCC)=C(C#N)C1c1ccc(O)c(OC)c1 (centres undefined) | inconclusive: 39.8 µM [inhibitor, single point] |
| NC(=O)c1c(NC(=O)c2cccnc2)sc2c1CCCC2 | inconclusive: 35.5 µM [inhibitor, single point] |
| CCOC(=O)C1CCCN(CC(O)COc2ccc(OC)cc2C(C)(C)C)C1 (centres undefined) | inactive |
| COC(=O)c1ccccc1NC(=O)N1CCCC1 | inconclusive: 25.1 µM [inhibitor, partial curve] |
| Cc1ccc(C)c(NC(NC(=O)c2ccccn2)C(Cl)(Cl)Cl)c1 (centres undefined) | inactive |
| C/C(CC(=O)N1CCN(C=O)CC1)=N\NC(=O)c1ccc([N+](=O)[O-])cc1 | inconclusive: 23.8 µM [inhibitor, single point] |
| CCN(CC)C(=O)CSc1ncnc2c1cnn2Cc1ccccc1 | inconclusive: 28.2 µM [inhibitor, partial curve] |
| CCN(C(=O)COC(=O)c1cc(-c2ccc(C)o2)nc2ccccc12)C1CCS(=O)(=O)C1 (centres undefined) | inconclusive: 8.91 µM [inhibitor, partial curve] |
| Cc1cccc2c3nc4ccccc4nc3n(CCCN3C(=O)c4ccccc4C3=O)c12 | inactive |
| Cc1cc(O)c(C(C[N+](=O)[O-])c2ccc(Cl)cc2Cl)c(=O)o1 (centres undefined) | inactive |
| CSc1ncccc1C(=O)OCC(=O)NC(=O)NCCC(C)C | inconclusive: 11.2 µM [inhibitor, partial curve] |
| COCc1cc(C)nc(SCc2nc3ccccc3c(=O)[nH]2)c1C#N | inconclusive: 15.8 µM [inhibitor, partial curve] |
| O=C(NCCO)c1ccccc1O | inconclusive: 20 µM [inhibitor, partial curve] |
| CC(=O)N1CCc2c(sc(NC(=O)c3ccc4c(c3)OCCO4)c2C#N)C1 | inconclusive: 35.5 µM [inhibitor, partial curve] |
